# Source: the supplement of paper PMC8728848
# This is one part of the list.
# Assays:
# Test in all cases: glycan array binding signal (z-score within array); higher = stronger binding
# Conditions in all cases: glycan notation: IUPAC condensed, linker removed
# [1] = molecular target: Gal(b1-3)[Fuc(a1-4)]GlcNAc(b1-6)GalNAc
# How it was run: (§1)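 Glycan array data came from 3228 arrays in the Consortium for Functional Glycomics database, and only arrays with an available protein sequence were kept. Glycan names were put into IUPAC-condensed notation, and columns mapping to the same glycan were averaged. The binding signal is a within-array Z-score, averaged across arrays of one protein sequence run at different concentrations or buffers and across linkers. A negative Z-score can be read as non-binding.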
# [2] = molecular target: Gal(b1-3)[GlcNAc(b1-6)]GalNAc
# How it was run: as §1
# [3] = molecular target: Gal(b1-3)[Neu5Ac(a2-6)]GalNAc
# How it was run: as §1
# [4] = molecular target: Gal(b1-3)[Neu5Ac(a2-6)]GlcNAc(b1-4)Gal(b1-4)Glc
# How it was run: as §1
# [5] = molecular target: Gal(b1-3)[Neu5Ac(b2-6)]GalNAc
# How it was run: as §1
# [6] = molecular target: Gal(b1-4)Gal
# How it was run: as §1
# [7] = molecular target: Gal(b1-4)GalNAc(a1-3)[Fuc(a1-2)]Gal(b1-4)GlcNAc
# How it was run: as §1
# [8] = molecular target: Gal(b1-4)GalNAc(b1-3)[Fuc(a1-2)]Gal(b1-4)GlcNAc
# How it was run: as §1
# [9] = molecular target: Gal(b1-4)Glc
# How it was run: as §1
# [10] = molecular target: Gal(b1-4)Glc6S
# How it was run: as §1
# [11] = molecular target: Gal(b1-4)GlcNAc
# How it was run: as §1
# [12] = molecular target: Gal(b1-4)GlcNAc(a1-6)Gal(b1-4)GlcNAc
# How it was run: as §1
# [13] = molecular target: Gal(b1-4)GlcNAc(b1-2)Man
# How it was run: as §1
# [14] = molecular target: Gal(b1-4)GlcNAc(b1-2)Man(a1-3)Man(b1-4)GlcNAc(b1-4)GlcNAc
# How it was run: as §1
# [15] = molecular target: Gal(b1-4)GlcNAc(b1-2)Man(a1-3)[Gal(b1-4)GlcNAc(b1-2)Man(a1-6)]Man(b1-4)GlcNAc(b1-4)GlcNAc
# How it was run: as §1
# [16] = molecular target: Gal(b1-4)GlcNAc(b1-2)Man(a1-3)[Gal(b1-4)GlcNAc(b1-2)Man(a1-6)]Man(b1-4)GlcNAc(b1-4)[Fuc(a1-6)]GlcNAc
# How it was run: as §1
# [17] = molecular target: Gal(b1-4)GlcNAc(b1-2)Man(a1-3)[Gal(b1-4)GlcNAc(b1-2)Man(a1-6)][Gal(b1-4)GlcNAc(b1-4)]Man(b1-4)GlcNAc(b1-4)[Fuc(a1-6)]GlcNAc
# How it was run: as §1
# [18] = molecular target: Gal(b1-4)GlcNAc(b1-2)Man(a1-3)[Gal(b1-4)GlcNAc(b1-2)Man(a1-6)][GlcNAc(b1-4)]Man(b1-4)GlcNAc(b1-4)[Fuc(a1-6)]GlcNAc
# How it was run: as §1
# [19] = molecular target: Gal(b1-4)GlcNAc(b1-2)Man(a1-3)[GlcNAc(b1-2)Man(a1-6)]Man(b1-4)GlcNAc(b1-4)GlcNAc
# How it was run: as §1
# [20] = molecular target: Gal(b1-4)GlcNAc(b1-2)Man(a1-3)[GlcNAc(b1-4)][Gal(b1-4)GlcNAc(b1-2)Man(a1-6)]Man(b1-4)GlcNAc(b1-4)GlcNAc
# How it was run: as §1
# [21] = molecular target: Gal(b1-4)GlcNAc(b1-2)Man(a1-3)[Man(a1-6)]Man(b1-4)GlcNAc(b1-4)GlcNAc
# How it was run: as §1
# [22] = molecular target: Gal(b1-4)GlcNAc(b1-2)Man(a1-6)Man(b1-4)GlcNAc(b1-4)GlcNAc
# How it was run: as §1
# [23] = molecular target: Gal(b1-4)GlcNAc(b1-2)Man(a1-6)[GlcNAc(b1-2)Man(a1-3)]Man(b1-4)GlcNAc(b1-4)GlcNAc
# How it was run: as §1
# [24] = molecular target: Gal(b1-4)GlcNAc(b1-2)Man(a1-6)[Man(a1-3)]Man(b1-4)GlcNAc(b1-4)GlcNAc
# How it was run: as §1
# [25] = molecular target: Gal(b1-4)GlcNAc(b1-2)[Gal(b1-4)GlcNAc(b1-4)]Man(a1-3)[Gal(b1-4)GlcNAc(b1-2)Man(a1-6)]Man(b1-4)GlcNAc(b1-4)GlcNAc
# How it was run: as §1
# [26] = molecular target: Gal(b1-4)GlcNAc(b1-2)[Gal(b1-4)GlcNAc(b1-4)]Man(a1-3)[Gal(b1-4)GlcNAc(b1-2)[Gal(b1-4)GlcNAc(b1-6)]Man(a1-6)]Man(b1-4)GlcNAc(b1-4)GlcNAc
# How it was run: as §1
# [27] = molecular target: Gal(b1-4)GlcNAc(b1-2)[Gal(b1-4)GlcNAc(b1-4)]Man(a1-3)[GlcNAc(b1-4)][Gal(b1-4)GlcNAc(b1-2)Man(a1-6)]Man(b1-4)GlcNAc(b1-4)GlcNAc
# How it was run: as §1
# [28] = molecular target: Gal(b1-4)GlcNAc(b1-2)[Gal(b1-4)GlcNAc(b1-4)]Man(a1-3)[GlcNAc(b1-4)][Gal(b1-4)GlcNAc(b1-2)[Gal(b1-4)GlcNAc(b1-6)]Man(a1-6)]Man(b1-4)GlcNAc(b1-4)GlcNAc
# How it was run: as §1
# [29] = molecular target: Gal(b1-4)GlcNAc(b1-2)[Gal(b1-4)GlcNAc(b1-6)]Man(a1-6)[Gal(b1-4)GlcNAc(b1-2)Man(a1-3)]Man(b1-4)GlcNAc(b1-4)GlcNAc
# How it was run: as §1
# [30] = molecular target: Gal(b1-4)GlcNAc(b1-2)[Gal(b1-4)GlcNAc(b1-6)]Man(a1-6)[Gal(b1-4)GlcNAc(b1-2)Man(a1-3)]Man(b1-4)GlcNAc(b1-4)[Fuc(a1-6)]GlcNAc
# How it was run: as §1
# [31] = molecular target: Gal(b1-4)GlcNAc(b1-2)[Gal(b1-4)GlcNAc(b1-6)]Man(a1-6)[GlcNAc(b1-4)][Gal(b1-4)GlcNAc(b1-2)Man(a1-3)]Man(b1-4)GlcNAc(b1-4)GlcNAc
# How it was run: as §1
# [32] = molecular target: Gal(b1-4)GlcNAc(b1-2)[Gal(b1-4)GlcNAc(b1-6)]Man(a1-6)[GlcNAc(b1-4)][Gal(b1-4)GlcNAc(b1-2)[Gal(b1-4)GlcNAc(b1-4)]Man(a1-3)]Man(b1-4)GlcNAc(b1-4)[Fuc(a1-6)]GlcNAc
# How it was run: as §1
# [33] = molecular target: Gal(b1-4)GlcNAc(b1-3)Gal(b1-3)GalNAc
# How it was run: as §1
# [34] = molecular target: Gal(b1-4)GlcNAc(b1-3)Gal(b1-3)GlcNAc
# How it was run: as §1
# [35] = molecular target: Gal(b1-4)GlcNAc(b1-3)Gal(b1-4)Glc
# How it was run: as §1
# [36] = molecular target: Gal(b1-4)GlcNAc(b1-3)Gal(b1-4)GlcNAc
# How it was run: as §1
# [37] = molecular target: Gal(b1-4)GlcNAc(b1-3)Gal(b1-4)GlcNAc(b1-2)Man(a1-3)[Gal(b1-4)GlcNAc(b1-3)Gal(b1-4)GlcNAc(b1-2)Man(a1-6)]Man(b1-4)GlcNAc(b1-4)GlcNAc
# How it was run: as §1
# [38] = molecular target: Gal(b1-4)GlcNAc(b1-3)Gal(b1-4)GlcNAc(b1-2)Man(a1-3)[Gal(b1-4)GlcNAc(b1-3)Gal(b1-4)GlcNAc(b1-2)Man(a1-6)]Man(b1-4)GlcNAc(b1-4)[Fuc(a1-6)]GlcNAc
# How it was run: as §1
binder,measurement,setting,value
GS14009A-pdi-495-27-495 (Parabacteroides distasonis) (protein) FEEVNTDPDSPTDVPTTNLLAYSLYYTSYRLYDRWFAMDEPMTFCGYASKMTYIDESRYNFRTGVQDTNWEYLYRILNNLKDIEKRATFNETPNMLNVSKVMQVHLMQVATDRWRDVPYTDAAKMTDGILQPKYDKQEDIYPGLLATLKEAADGFADGGSDDLGEGDLLFGGDIEKWQRYCNSMRLRLAMRISEVSPALAKETVEEVMGNPTKYPIMESNDDNAFFWWIGTDPNYYEPMADGYRTRKTEYCAADVIVDHMNTREDPRRSSYFQPTKESVEAGEPKYVGYTIGAKANAVASKYSIWGARFFTDLAGFSPYMRVAEPWFCVAEASMLGWNTGISAEDAYNKAVTYSMEENSVSAEDIADYLANAGKFTNDKKQIYYEEWVAMFKQGMEGWSLYRRTGVPDNLYPAPGRPANYSNHNVPPFRSPYPDKERNLNNANCAPFDAEVVDNLWGKQMWWDTRTGVH,glycan array binding signal (z-score),[1],0.634
same,glycan array binding signal (z-score),[2],-0.222
same,glycan array binding signal (z-score),[3],-0.338
same,glycan array binding signal (z-score),[4],-0.357
same,glycan array binding signal (z-score),[5],-0.306
same,glycan array binding signal (z-score),[6],0.015
same,glycan array binding signal (z-score),[7],-0.304
same,glycan array binding signal (z-score),[8],-0.198
same,glycan array binding signal (z-score),[9],-0.033
same,glycan array binding signal (z-score),[10],0.186
same,glycan array binding signal (z-score),[11],-0.274
same,glycan array binding signal (z-score),[12],-0.233
same,glycan array binding signal (z-score),[13],0.015
same,glycan array binding signal (z-score),[14],-0.62
same,glycan array binding signal (z-score),[15],0.093
same,glycan array binding signal (z-score),[16],0.355
same,glycan array binding signal (z-score),[17],-0.024
same,glycan array binding signal (z-score),[18],-0.845
same,glycan array binding signal (z-score),[19],-0.19
same,glycan array binding signal (z-score),[20],15.2
same,glycan array binding signal (z-score),[21],0.358
same,glycan array binding signal (z-score),[22],-0.623
same,glycan array binding signal (z-score),[23],-0.264
same,glycan array binding signal (z-score),[24],-0.365
same,glycan array binding signal (z-score),[25],-0.051
same,glycan array binding signal (z-score),[26],-0.252
same,glycan array binding signal (z-score),[27],0.2
same,glycan array binding signal (z-score),[28],-0.268
same,glycan array binding signal (z-score),[29],0.216
same,glycan array binding signal (z-score),[30],1.67
same,glycan array binding signal (z-score),[31],-0.249
same,glycan array binding signal (z-score),[32],-0.3
same,glycan array binding signal (z-score),[33],-0.494
same,glycan array binding signal (z-score),[34],-0.391
same,glycan array binding signal (z-score),[35],0.051
same,glycan array binding signal (z-score),[36],-0.485
same,glycan array binding signal (z-score),[37],0.299
same,glycan array binding signal (z-score),[38],0.273
